# Laboratory results: article PMC12136788
# The list shows a part of the results.
# B1: chr3:50258797:50258898:+|3pUTR|ENSG00000114353|msi1|FALSE|unique (ssRNA)
# RNA: GGGAGUUCUACAGUCCGACGAUCGCACAAGAAGCGUGAGACGCCACCAUUCCUGGAAACCACAGUCCACCUGCUCAUUCUCGUAGCUUUUUAAAAAAAUGAAAGUAAAGGAAAAAAAAAAAACUGCAAAUCUAGAAAACUUUUCAACAGAGGAUUGAGCAUCA
# B2: ENSG00000136451:be:win_3151|3pUTR|ENSG00000136451|bound_else_gene|NA|bound_elsewhere_windowed (ssRNA)
# RNA: GGGAGUUCUACAGUCCGACGAUCUGAGACAGACUUCCUACAUCAGGGACAGGUAUCUGUGUGUCAUUAUACAAAACAGUUCUAGGGGGUUGAACUACAUAGUAAAAAAAUAAAAUAAAUAGUACUUAGUGUAAAAUAAUUUUACAACAGAGGAUUGAGCAUCA
# B3: ENSG00000136451:be:win_4351|3pUTR|ENSG00000136451|bound_else_gene|NA|bound_elsewhere_windowed (ssRNA)
# RNA: GGGAGUUCUACAGUCCGACGAUCCCCCUCCUACGGUGUGCUCCUGAAUGAAGGUUUCUAUGUAAGCAGAUGAUGAUUUUACCUGUCAAUACCAGCACUGUAUUACUAACAUGCAAAAUACUGCAGAUUUAUUUUGAAAAUUAACAACAGAGGAUUGAGCAUCA
# B4: chr5:136975339:136975545:-|3pUTR|ENSG00000152377|msi1|FALSE|unique (ssRNA)
# RNA: GGGAGUUCUACAGUCCGACGAUCAGAGCCCAUCAAAUCCUGAGUGUCAGUUUGUUGUCCCUAUUGUAGAUGAAAUAGUGAUGUAGCAAAAACCUAGUAAAUUCUGAAUGCUUUUCCACGUAGACUUAUCUGGAAUGUGAACACCAACAGAGGAUUGAGCAUCA
# B5: chr12:50748518:50748596:+|3pUTR|ENSG00000066084|msi1_unk|FALSE|overlapping (ssRNA)
# RNA: GGGAGUUCUACAGUCCGACGAUCUCAAAUUCAAACUACAGUACUGUGUAAUUAUGUAUAAAGUUUUUUUAUUUAUUUGAAGUUAGACUAGAUAUACGUUUUUAAAUUUAACAUCUGGCUGGACAGUGUUCUAUUAACUCAUUGCAACAGAGGAUUGAGCAUCA
# B6: chr12:14497711:14497812:+|CDS|ENSG00000171681|unk|FALSE|unique (ssRNA)
# RNA: GGGAGUUCUACAGUCCGACGAUCACAGCGUCUGCCCCCAGAAGCUGCCAGCACAUCUCUGCCUCAGAAGCCACACUUGAAGUUAGCACGCGUUCAGAGUCAAAAUGGCAUAGUACUGUCAUGGAGUGUCCUGGAGGUGGAUCGCAACAGAGGAUUGAGCAUCA
# B7: chr1:111117940:111118053:-|3pUTR|ENSG00000156171|unk|total|mutant (ssRNA)
# RNA: GGGAGUUCUACAGUCCGACGAUCAGGCUGACAGUAACACUGAUGAAUGCUGAUAAUCAGGAAACAUGAAAGAAGCCAUUUGACCGAUUAUUCUAAAGGAUAUCAUCAAGAAGACUAUUAAAAACACCUAUGCCUAUACUUUUUCAACAGAGGAUUGAGCAUCA
# B8: chr2:96301550:96301651:-|CDS|ENSG00000144028|msi1|total|mutant (ssRNA)
# RNA: GGGAGUUCUACAGUCCGACGAUCAAGGCGAAAGGAGAUUGACCUGCUGCUGGGUCAAACAGAUGAUACCAGAUACCAUGUGCCCGUGAACCUGGGCAAAAAGAUCACAGACUAUGGUGGAGAUAAGGAAAUCCAAAAUAUGGGCAACAGAGGAUUGAGCAUCA
# B9: chr4:140550230:140550341:+|CDS|ENSG00000179387|unk|FALSE|unique (ssRNA)
# RNA: GGGAGUUCUACAGUCCGACGAUCGAAUUUGACAAGUUUUGGUUUGAAGAAGAACCAGAAAGCAUUAUGUAUUUCAAUUUGUAUAGAGAGAAGUUUCAUGAAAAGAUUAAAGGACUUUUACUGGAUUGUAAUGUAGCACUUACUCAACAGAGGAUUGAGCAUCA
# B10: chr15:65327126:65328908:-|three_prime_utr|ENSG00000174498|control|control|control (ssRNA)
# RNA: GGGAGUUCUACAGUCCGACGAUCUGAACUAACAUUUUUCUUUAAAAAGCAAAACUUAAAAAAAAAAAAAAAGAGGAGAGAGAUAGAGGAAGGUGAAUUAGACUCCAAAAGAUGACCCUGCUGUAGCUGGGCCCUGACACUGUCCAACAGAGGAUUGAGCAUCA
# B11: ENSG00000070961:be:win_3201|CDS|ENSG00000070961|bound_else_gene|NA|bound_elsewhere_windowed (ssRNA)
# RNA: GGGAGUUCUACAGUCCGACGAUCAUUCCUCAAAGAAGCUGGUCAUGGAACACAAAAGGAAGAAAUACCUGAGGAGGAAUUAGCAGAGGAUGUUGAAGAGAUUGAUCACGCUGAAAGGGAGUUGCGGCGUGGCCAAAUCUUGUGCAACAGAGGAUUGAGCAUCA
# B12: ENSG00000130818:stop:overlap|stop_codon|ENSG00000130818|stop_codon|NA|stop_codon (ssRNA)
# RNA: GGGAGUUCUACAGUCCGACGAUCAGCAAUGCGGGAAAGCUUACAGUCAUCCCCGUUCACUUCGAAGACAUGAACAAAUUCACUAGUGAGAAACUGUCCAUGUAAUAAAUGUGGGAAAGCUCUCAUUUGUUCCAGUUCACUUUACAACAGAGGAUUGAGCAUCA
# B13: chr10:110887682:110887783:+|CDS|ENSG00000150593|msi1|FALSE|bound_elsewhere (ssRNA)
# RNA: GGGAGUUCUACAGUCCGACGAUCGUUAAGAGAUUUAAAUCUUGGUGAAAUGAAAAGUGGAGUACCAGUGUUGGCAGUAUCCUUAGCAUUGGAGGGGAAGGCUAGUCAUAGAGAGAUGACAUCUAAGCUUCUUUCUGACCUUUGCAACAGAGGAUUGAGCAUCA
# B14: chr17:64498535:64498649:-|3pUTR|ENSG00000108654|unk|total|mutant (ssRNA)
# RNA: GGGAGUUCUACAGUCCGACGAUCUUAAACUGAGGCUUUAAUUGAUGUUAAUGCCUUAUGUCAAAUGUAAAGUCCGAAUUUGCCCGGGCUGGGACCGGGAGUGAUAUUUCCCGGACUCCGACAUUGAAAACUAAUUCAGCCUGUCAACAGAGGAUUGAGCAUCA
# Molecular target: T1, UNK ZnF1-6 (called full-length) (human, UniProt Q9C0B0 30-357)
# T1 sequence: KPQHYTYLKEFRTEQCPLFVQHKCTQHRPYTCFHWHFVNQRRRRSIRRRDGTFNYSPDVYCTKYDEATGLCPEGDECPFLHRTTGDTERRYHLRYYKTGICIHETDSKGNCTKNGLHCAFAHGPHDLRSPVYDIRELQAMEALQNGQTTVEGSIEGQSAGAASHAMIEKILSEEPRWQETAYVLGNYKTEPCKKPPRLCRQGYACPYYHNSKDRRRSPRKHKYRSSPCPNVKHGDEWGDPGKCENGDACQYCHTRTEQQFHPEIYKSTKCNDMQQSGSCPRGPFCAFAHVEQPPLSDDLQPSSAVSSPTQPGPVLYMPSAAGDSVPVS
# Assay: nsRBNS (natural sequence RNA bind-n-seq); RBNS binding buffer (assumed for nsRBNS): 25 mM Tris pH 7.5, 150 mM KCl, 3 mM MgCl2, 0.01% Triton X-100, 500 ug/ml BSA, 20 U/ml SUPERase-In, 4 C; UNK is unkempt and MSI1 is Musashi-1; names of the RNAs are library labels; protein concentration not given here; high values mean tight binding
row,Binder,binding signal [enrichment R]
1,B1,2.62
2,B2,44
3,B3,0.632
4,B4,7
5,B5,6.56
6,B6,0.627
7,B7,0.383
8,B8,0.638
9,B9,0.651
10,B10,1.85
11,B11,0.718
12,B12,2.96
13,B13,0.79
14,B14,0.347
